About 120 (0.25%) of roughly 48,000 compounds were called active. About 4% were inconclusive and are not listed. Calls follow the shape of the dose curve; as a rule, active = well fitted activation curve with a large enough effect; inconclusive = small, poorly fitted or top-dose-only effect, or another doubt; inactive = no such curve, though single readings can be large or run the other way. This is one part of the list.

The nature of the assay: Primary qHTS for Identification of Small Molecule Activators of Huntingtin-Antisense Promoter Activity. Also: nearly all actives have a fitted effect of over 55% in size. To be noted: HEK293 HTT-AS promoter firefly luciferase reporter, 24 h; series mostly up to 57.5 µM; activity change, positive = activation: at the top concentration. From the text: Assay Provider: Russell L. Margolis M.D.
Department Neurology, Johns Hopkins University School of Medicine, Baltimore, MD
Huntington's Disease (HD) is a neurodegenerative disorder caused by a CAG repeat expansion in exon 1 of huntingtin (HTT). While there are currently no disease-modifying treatments for HD, recent efforts have focused on development of nucleotide-based therapeutics to lower HTT expression. As an alternative to siRNA or oligonucleotide methods, we hypothesized that suppression of HTT expression might be accomplished by small molecules that either (1) directly decrease HTT expression by suppressing HTT promoter activity or (2) indirectly decrease HTT expression by increasing the promoter activity of HTT-AS, the gene antisense to HTT that appears to inhibit expression of HTT.
We developed and employed a high throughput screen for modifiers of HTT and HTT-AS promoter activity using luminescent reporter HEK293 cells; of the 52,041 compounds tested, we identified 898 replicable hits. We used a rigorous stepwise approach to assess compound toxicity and the capacity of the compounds to specifically lower huntingtin protein in 5 different cell lines, including HEK293 cells, HD lymphoblastoid cells, mouse primary neurons, HD iPSCs differentiated into cortical-like neurons, and HD hESCs. We found no compounds which were able to lower huntingtin without lowering cell viability in all assays, though the potential efficacy of a few compounds at non-toxic doses could not be excluded.
SEQUENCE No. (1, 2, 3, etc.); […] (e.g., Cells, Incubation, Reagent, etc.); VALUE and DESCRIPTION.
1; Reagent; 4 uL; 2,500 Hek293 luciferase reporter cells per wells
3; Compound; 23 nL; Control inhibitor / compound library
5; Reagent; 2.5 uL; Firefly Luc reagent; Dual-Glo Luciferase Reporter Assay System (Promega)
6; Time; 10 min; room temperature incubation
7; Detection; Luminescence; FLuc
NOTES (numbers refer to sequence above)
1; High-throughput screening, measuring luminescence from a Hek293 luciferase reporter, was performed in 1,536 well white-walled tissue-culture treated plates. 2,500 cells were plated in 4 µL of Opti-MEM per well using a Multidrop Combi Reagent Dispenser (ThermoFisher).
2; Assay plates were cultured for 24 hours.
3; Control inhibitor (PTC124; final concentration of 50 uM) and compound library (at final concentrations of 460 nM - 57.5 uM) were added to the assay plate using the Kalypsis Pintool Robotic System equipped with 1536 pinheads.
4; Cells were then incubated for 24 hours at 37 degrees C prior to luminescence measurements.
5; In all cases, luminescence was measured using the Dual-Glo Luciferase Reporter Assay System (Promega) following the manufacturer's instructions.
6; Room temperature incubation.
7; Luminescence signal was obtained using the PerkinElmer ViewLux plate reader. Results were normalized to vehicle control (0% activity) and zero RLU (-100% activity).
A general note: qHTS replaces the single test concentration by a dilution series.
Take `C[C@H]1[C@H](O)O[C@@H]2O[C@@]3(C)CC[C@@H]4[C@H](C)CC[C@@H]1[C@@]24OO3`: the “activity change, positive = activation” value was inactive: -37.6%.
For `O=C(Cn1c(=O)n(CC2CCCO2)c(=O)c2ccccc21)Nc1cccc(Cl)c1` (stereo unspecified), the “activity change, positive = activation” value is inactive: -17.7%.
In the case of `COc1cc(OC)c(Nc2nc3ccccc3nc2-n2nc(C)cc2C)cc1Cl`, the “activity change, positive = activation” value was inactive: -18.1%.
For the molecule `COC(=O)c1scc(-c2ccc(C)cc2)c1S(=O)(=O)N1CCN(c2ccc(OC)cc2)CC1`, the “activity change, positive = activation” value is inactive: -21.6%.
For the molecule `CCS(=O)(=O)N1CCc2cc(C(=O)NCc3ccccc3)ccc21`, the “activity change, positive = activation” value is inactive: 5.16%.
As for `Cc1ccc(N)cc1O`, the “activity change, positive = activation” value was inactive: -6.44% [at 116 µM, percent change from vehicle, -100% = no light].
Turning to `Cc1ccc(CCn2c3c(c4cc(Cl)ccc42)CN(C)CC3)cn1`, the “activity change, positive = activation” value was inactive: 2.09%.
In the case of `CCCCN1CC(c2nc3ccccc3n2CCCCOc2ccc(C)c(C)c2)CC1=O` (stereo unspecified) it was inactive: -47.5%.
Consider `Cc1ccc(F)c(NC(=O)Nc2ccc3snnc3c2)c1`, for which the “activity change, positive = activation” value was inactive: 6.43%.
In the case of `CC(=O)N1CCCc2cc(S(=O)(=O)N(C)CC(=O)Nc3cccc(C)c3C)ccc21` it was inactive: -10.3%; in that of `CCOc1ccc(CCNC(=O)c2cn(CC)c3ccc(S(=O)(=O)N4CCCCCC4)cc3c2=O)cc1OCC`, inactive: -27.7%; in that of `O=C1c2[nH]nc(-c3ccccc3O)c2C(c2cccc(Cl)c2)N1Cc1cccnc1` (stereo unspecified), inactive: -30.5%.
Take `O=C(NCCN1CCN(c2cccc(Cl)c2)CC1)C1COc2ccccc2C1` (stereo unspecified): the “activity change, positive = activation” value is inactive: -14.6%.
In the case of `Cc1cccc(CNC(=O)Cn2ccc3cc(S(=O)(=O)N4CCCC4)ccc32)c1`, the “activity change, positive = activation” value is inactive: -17.5%.
As for `O=C(c1ccc(CSc2nc3ccncc3n2Cc2cccc(F)c2)cc1)N1CCCCC1`, the “activity change, positive = activation” value was inactive: -21.3%.
Regarding `CCOc1ccc(N(CC(=O)NCc2ccc(C)cc2)S(=O)(=O)c2c(C)noc2C)cc1`, the “activity change, positive = activation” value was inactive: -5.37%.
For `CCOC(=O)c1c(C)oc2ccc(N(C(=O)c3ccncc3)S(=O)(=O)c3ccc(Br)cc3)cc12`, the “activity change, positive = activation” value is inactive: -33.4%.
With `CC1=C(c2ccc(C(C)C)cc2)S(=O)(=O)NC1=NCc1ccccc1Br`, the “activity change, positive = activation” value is inactive: -17.1%.
Regarding `Cc1cccc(NC(=O)Cn2c(=O)nc(-c3ccccc3)c3ccccc32)c1C`, the “activity change, positive = activation” value was inactive: -9.51%.
As to `CNC(=O)C1CCC(Cn2c(=O)c3sccc3n(CC(=O)Nc3ccc(C)c(F)c3)c2=O)CC1` (stereo unspecified), the “activity change, positive = activation” value is inactive: -25.1%.
In the case of `COc1ccc(C)cc1NC(=O)C1CCCN(S(=O)(=O)c2ccc3[nH]c(=O)ccc3c2)C1` (stereo unspecified) it was inactive: -30.5%; in that of `COc1cc(NC(=O)CN2C(=O)CN(C)C(=O)c3ccccc32)cc(OC)c1OC`, inactive: -8.75%; in that of `CCCCCCCCCC(=O)N[C@@H](Cc1c[nH]c2ccccc12)C(=O)N[C@H](CC(N)=O)C(=O)N[C@@H](CC(=O)O)C(=O)N[C@@H]1C(=O)NCC(=O)N[C@@H](CCCN)C(=O)N[C@@H](CC(=O)O)C(=O)N[C@H](C)C(=O)N[C@@H](CC(=O)O)C(=O)NCC(=O)N[C@H](CO)C(=O)N[C@@H]([C@@H](C)CC(=O)O)C(=O)N[C@@H](CC(=O)c2ccccc2N)C(=O)O[C@@H]1C`, inactive: -7.05%.
As for `CCOc1ccc(CCNC(=O)Cn2ncc3c(=O)oc4ccc(C)cc4c32)cc1`, the “activity change, positive = activation” value is inactive: -8.3%.
Take `CCOC(=O)c1c(C)[nH]c(C)c1S(=O)(=O)N1CCC(C(=O)Nc2ccc(C)cn2)CC1`: the “activity change, positive = activation” value was inactive: -11.1%.
Take `CCn1c2ccccc2c2cc(NC(=O)COc3cccc(C)c3)ccc21`: the “activity change, positive = activation” value was inactive: -8.07%.
`CCOc1cc2[nH]c(=O)n(CCCC(=O)N3CCN(c4ccc(OC)cc4)CC3)c(=O)c2cc1OCC`: the “activity change, positive = activation” value is inactive: -22%.
In the case of `CSc1ccc(CCNC(=O)CN2C(=O)c3cccnc3Oc3ccc(C)cc32)cc1` it was inactive: -15.1%; in that of `Cc1ccc2c(=O)cc(C(=O)N(Cc3ccc(N(C)C)cc3)C3CCS(=O)(=O)C3)oc2c1` (stereo unspecified), inactive: 7.23%.
For `CCCN1CCN(CCCNC(=O)Cn2nc(CC)n3c(cc4occc43)c2=O)CC1`, the “activity change, positive = activation” value was inactive: -17.1%.
In the case of `Cc1cc(NC(=O)N(C)CCc2c(C)nn(C)c2C)ccc1Br` it was inactive: -3.14%.
In the case of `N=c1n(CCN2CCCCC2)c2ccccc2n1CC(O)COc1ccc(Cl)cc1Cl` (stereo unspecified) it was inactive: -46.3%; in that of `CCc1cccc(C)c1NC(=O)CSc1nc2ccccc2nc1N1CCOCC1`, inactive: 0%; in that of `CC1(C)O[C@H]2[C@@H](O1)[C@@H](C(=O)Nc1ccc(F)c(F)c1)O[C@@H]1OC(C)(C)O[C@@H]12`, inactive: -6.09%.
Consider `COc1ccc(Cn2c(SCc3ccc(C(=O)NCc4cccs4)cc3)nc3cccnc32)cc1`, for which the “activity change, positive = activation” value is inactive: -29.8%.
Take `Cc1cc(F)ccc1NS(=O)(=O)c1c(C)nc2scc(C)n2c1=O`: the “activity change, positive = activation” value was inactive: -21.5%.
For `Cc1ccc(S(=O)(=O)N(CCc2ccccc2)CC(=O)Nc2cc(C)ccc2C)cc1`, the “activity change, positive = activation” value is inactive: -19.1%.
In the case of `CCOC(=O)c1cc(-c2ccc(C)cc2)n(CCC(=O)Nc2ccc(C(C)C)cc2)c1C` it was inactive: -28.6%; in that of `COc1cc(C2C(C(=O)Nc3ccc(C)cc3C)=C(C)Nc3nc4ccccc4n32)cc(OC)c1OC` (stereo unspecified), inactive: -5.21%; in that of `Cc1cccc(NC(=O)CS(=O)(=O)c2nc(-c3ccccc3)cn2-c2cccc(Cl)c2)c1C`, inactive: 2.03%.
For `Cc1cccc(NC(=O)Cn2nnc(C(=O)Nc3ccccc3Br)c2N)c1C`, the “activity change, positive = activation” value was inactive: -1.51%.
For `Cn1cc(C(=O)NCc2ccccc2)c(=O)c2cc(S(=O)(=O)N3CCOCC3)ccc21`, the “activity change, positive = activation” value is inactive: -4.85%.
As for `CCOc1ccccc1NC(=O)c1nc2nc(C)cc(C(F)F)n2n1`, the “activity change, positive = activation” value is inactive: -6.24%.
For `COc1cccc(-c2nc(CS(=O)(=O)CC(=O)Nc3c(C)cc(C)cc3C)c(C)o2)c1`, the “activity change, positive = activation” value is inactive: -38.6%.
Turning to `COc1cccc(N2CCN(C(=O)C3CCN(S(=O)(=O)c4c(C)noc4C)CC3)CC2)c1`, the “activity change, positive = activation” value is inactive: -14%.
With `CCOC(=O)CN1C(=O)c2cccnc2Oc2ccccc21`, the “activity change, positive = activation” value is inactive: -8.71%.

These data come from PubChem BioAssay AID1508624 (National Center for Advancing Translational Sciences (NCATS), 2021).
